Some of the results follow.
tested on: PfHDP1 homeodomain (GST-tagged); test: gcPBM binding intensity (ln(normalized median fluorescence intensity)); higher = stronger DNA binding
Procedure, shortened: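 After 1 h on an Agilent 4 × 180k array of primer-extended double-stranded 36-bp intergenic genomic probes and negative controls, bound GST-tagged P. falciparum DNA-binding domains were detected with Alexa488 anti-GST antibody and scanned at 488 nm. The domains had been expressed in E. coli, and binding took place in 1× PBS with 1% milk, 0.2 mg/ml BSA, 0.5% salmon testes DNA and 0.03% Triton X-100. Binding intensity is the highest Masliner-normalised natural-log median intensity across replicate spots of either probe orientation.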

| Sequence | gcPBM binding intensity (ln) |
| --- | --- |
| TGGTTATAATTGTACGCATGTAATTACATATTCTCT [TGCATGCA_site599] | 6.7 |
| TATATTTAAATATATACACACATTATCATTTTCATA [CACACA_site1708] | 6.66 |
| GAAAAGATTTAAAAATGTACAAAAGAAAAAAAAAAA [XGTACX_site6916] | 6.18 |
| TTAAAATTAAAATACGTACACACCTTATCTTTTTGG [CACACA_site7982] | 6.26 |
| TCTTACAAGGAACTAATAAAATTGTAGTTTGTATTT [CACACA_negctrl_site386] | 6.11 |
| AAGTATTTCCTAAAATGTACATATAAATAAGTATAT [XGTACX_site1282] | 6.27 |
| AAATCTTAATAAAGTTGTACATAATTATGTTTAATA [XGTACX_site3348] | 6.31 |
| TTATTATTTATTTTTTATTATTATTATTTTTTTTTA [XGTACX_negctrl_site76] | 6.3 |
| CATATATTTTGAAACACACACATATAAAATATACAT [CACACA_site6664] | 6.81 |
| AAAATACATGGACACACACACACACCGATATATATA [CACACA_site5885] | 6.97 |
| ATATAATATATATACAAACACACAATTGTGTCCACA [CACACA_site1748] | 6.97 |
| TACATAACTTTAATCACACACAAACAAACACATACA [CACACA_site6235] | 7.06 |
| AAATATACATATATATGTACATATAAATATATTTTA [XGTACX_site5266] | 6.27 |
| AACCTCATGGACATATGTACACATATACAATTATTT [XGTACX_site6533] | 7.04 |
| TTATCTTACATATATCATTAAATCATATAACAAAAA [XGTACX_negctrl_site517] | 6.35 |
| TTATGTATTTTAAATGGTTTTATTATAAAGTTTAAT [CACACA_negctrl_site1470] | 6.17 |
| CCTTTATAATTGGAAACACACATATAAAGTATATAT [CACACA_site3900] | 6.4 |
| GTTATATTTAAAATAGTGCAATAAAAATAATAATAT | 9.3 |
| CACAAATATACAAATACACACAAATATACGCATATA [CACACA_site2384] | 6.82 |
| GAATTTTAAATAAACATATAAACAGAAAAAAAAAAA [TGCATGCA_negctrl_site149] | 6.49 |
| TAGTTTTCTTAAAGATGTACTTATTAAAAATAAACT [XGTACX_site1001] | 5.72 |
| TATAGATAAATTATTTGTACTTATAAAATTATTATA [XGTACX_site2870] | 5.89 |
| AATGATTGATTTTATTGTACGTACTCGGAATATGGT [XGTACX_site4976] | 6.81 |
| GTTCGAAGTATAATTTGTACATATAAAATGGTTCCC [XGTACX_site382] | 6.44 |

— the supplement of paper PMC11417369
